pIC50: −log10 of the molar value. The IC50 comes from the fitted curve, where viability falls to half of the control; a fit beyond the top or the lowest dose is shown as a bound at that dose. For AUC the same curve is integrated over the 256-fold range of doses and scaled to a fraction; values near 1 show little effect. Any top dose called inferred comes from the curve model; the source does not state it.

In general, pIC50 refers to −log10 of the IC50, conventionally taken in molar units.

Compound in the assay: Cn1cc(C2=C(c3cn(C4CCN(Cc5ccccn5)CC4)c4ccccc34)C(=O)NC2=O)c2ccccc21 [LY317615]
Kind of assay: Viability of human cancer cell lines after 72 h of drug (GDSC screen). To be noted: top dose inferred. As to the method: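 Human cancer cell lines in 384-well plates, medium with 10% serum, drug for 72 h over a 256-fold dose range (nine 2-fold or five 4-fold steps up to the top dose). Adherent lines were fixed and stained with the nucleic acid dye Syto60, suspension lines read with resazurin; signal relative to control wells, capped at 0 and 100%. One two-parameter sigmoid per drug and line, fitted in a mixed model over all curves with the slope shared within a line.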
As for “LP-1 (myeloma, suspension, top dose 20 µM)”, the AUC came out at 0.862 and the pIC50 was 4.90.

For “MDA-MB-157 (breast, adherent, top dose 20 µM)”, the AUC worked out at 0.963 and the pIC50 was below 4.70.

Take “ES3 (Ewing sarcoma, adherent, top dose 20 µM)”: the AUC was 0.844 and the pIC50 is 4.81.

With “H9 (lymphoid neoplasm, suspension, top dose 20 µM)”, the AUC stood at 0.719 and the pIC50 is 5.34.

“PANC-03-27 (pancreas, adherent, top dose 20 µM)”: the AUC was found to be 0.729 and the pIC50 is 5.27.

In the case of “WM793B (melanoma, adherent, top dose 20 µM)”, the AUC came out at 0.785 and the pIC50 is 5.02.

Consider “RCC-JW (kidney, adherent, top dose 20 µM)”, for which the AUC stood at 0.743 and the pIC50 was 5.20.

Turning to “FU97 (stomach, adherent, top dose 20 µM)”, the AUC is 0.947 and the negative-log IC50 (pIC50) was below 4.70.

As for “HPAC (pancreas, adherent, top dose 20 µM)”, the AUC stood at 0.872 and the negative-log IC50 (pIC50) is below 4.70.

Take “NCI-H650 (lung adenocarcinoma, adherent, top dose 20 µM)”: the AUC was 0.879 and the pIC50 is below 4.70.

Take “U-2-OS (osteosarcoma, adherent, top dose 20 µM)”: the AUC amounted to 0.981 and the pIC50 is below 4.70.

“Detroit562 (head and neck, adherent, top dose 20 µM)”: the AUC came to 0.89 and the pIC50 is below 4.70.

On to “KU-19-19 (bladder, adherent, top dose 20 µM)”, for which the AUC was determined as 0.962 and the pIC50 is below 4.70.

As to “T-24 (bladder, adherent, top dose 20 µM)”, the AUC stood at 0.878 and the pIC50 is 4.73.

As for “LS-513 (large intestine, adherent, top dose 20 µM)”, the AUC amounted to 0.649 and the pIC50 was 5.48.

Take TK10 (kidney, adherent, top dose 20 µM): the AUC was determined as 0.649 and the negative logarithm of the IC50 (pIC50) is 5.45.

For the cell line “CW-2 (large intestine, adherent, top dose 20 µM)”, the AUC is 0.876 and the pIC50 is below 4.70.

As for “D-263MG (glioma, adherent, top dose 20 µM)”, the AUC came out at 0.972 and the pIC50 was below 4.70.

For “ESS-1 (endometrium, adherent, top dose 20 µM)”, the AUC is 0.936 and the pIC50 is below 4.70.

Regarding “HPAF-II (pancreas, adherent, top dose 20 µM)”, the AUC stood at 0.801 and the pIC50 was 4.87.

As to “MDA-MB-361 (breast, adherent, top dose 20 µM)”, the AUC was 0.973 and the pIC50 is below 4.70.

Consider “UACC-812 (breast, adherent, top dose 20 µM)”, for which the AUC came to 0.891 and the pIC50 is below 4.70.

Regarding “SH-4 (melanoma, adherent, top dose 20 µM)”, the AUC was 0.757 and the pIC50 is 4.97.

As to “TE-9 (oesophagus, adherent, top dose 20 µM)”, the AUC was found to be 0.953 and the negative logarithm of the IC50 (pIC50) is below 4.70.

Take “HCC1806 (breast, adherent, top dose 20 µM)”: the AUC was 0.947 and the pIC50 was below 4.70.

For “NCI-H630 (large intestine, adherent, top dose 20 µM)”, the AUC turned out to be 0.943 and the pIC50 is below 4.70.

On to TT (thyroid, adherent, top dose 20 µM), for which the AUC turned out to be 0.965 and the pIC50 is below 4.70.

With “SJRH30 (rhabdomyosarcoma, adherent, top dose 20 µM)”, the AUC was determined as 0.894 and the pIC50 is below 4.70.

In the case of “PCI-38 (head and neck, adherent, top dose 20 µM)”, the AUC is 0.909 and the pIC50 was below 4.70.

Consider “D-542MG (glioma, adherent, top dose 20 µM)”, for which the AUC amounted to 0.98 and the pIC50 is below 4.70.

On to OVMIU (ovary, adherent, top dose 20 µM), for which the AUC is 0.669 and the negative-log IC50 (pIC50) is 5.38.

Turning to “FTC-133 (thyroid, adherent, top dose 20 µM)”, the AUC turned out to be 0.979 and the pIC50 was below 4.70.

Consider “EFM-192A (breast, adherent, top dose 20 µM)”, for which the AUC is 0.889 and the pIC50 was below 4.70.

Take “MDA-MB-468 (breast, adherent, top dose 20 µM)”: the AUC was 0.941 and the pIC50 was below 4.70.

Turning to “NCI-H1299 (large cell lung carcinoma, adherent, top dose 20 µM)”, the AUC came out at 0.949 and the negative logarithm of the IC50 (pIC50) was below 4.70.

With “MS-1 (small cell lung carcinoma, suspension, top dose 20 µM)”, the AUC came out at 0.933 and the pIC50 was below 4.70.

On to “BICR22 (head and neck, adherent, top dose 20 µM)”, for which the AUC is 0.979 and the pIC50 was below 4.70.

For the cell line “DEL (lymphoid neoplasm, suspension, top dose 20 µM)”, the AUC was 0.847 and the negative-log IC50 (pIC50) is 4.99.

Regarding KS-1 (glioma, adherent, top dose 20 µM), the AUC stood at 0.641 and the pIC50 is 5.47.

In the case of “HDQ-P1 (breast, adherent, top dose 20 µM)”, the AUC amounted to 0.888 and the pIC50 is below 4.70.

On to “LB996-RCC (kidney, adherent, top dose 20 µM)”, for which the AUC amounted to 0.982 and the pIC50 was below 4.70.

For the cell line “NCI-H460 (large cell lung carcinoma, adherent, top dose 20 µM)”, the AUC stood at 0.99 and the negative logarithm of the IC50 (pIC50) was below 4.70.

As to “SW1573 (lung adenocarcinoma, adherent, top dose 20 µM)”, the AUC came out at 0.935 and the pIC50 was below 4.70.

Consider “RKO (large intestine, adherent, top dose 20 µM)”, for which the AUC worked out at 0.785 and the pIC50 is 5.10.

Take “TE-1 (oesophagus, adherent, top dose 20 µM)”: the AUC is 0.905 and the pIC50 is below 4.70.

Turning to “C-4-I (cervix, adherent, top dose 20 µM)”, the AUC is 0.986 and the pIC50 is below 4.70.

J82 (bladder, adherent, top dose 20 µM): the AUC amounted to 0.815 and the pIC50 was 4.96.

In the case of “SK-MG-1 (glioma, adherent, top dose 20 µM)”, the AUC stood at 0.78 and the pIC50 was 5.08.

As to “VCaP (prostate, adherent, top dose 20 µM)”, the AUC amounted to 0.904 and the negative-log IC50 (pIC50) is below 4.70.

As to “SK-ES-1 (Ewing sarcoma, semi-adherent, top dose 20 µM)”, the AUC was 0.959 and the pIC50 is below 4.70.

Take A431 (skin, adherent, top dose 20 µM): the AUC was determined as 0.637 and the pIC50 is 5.53.

Consider “EW-7 (Ewing sarcoma, semi-adherent, top dose 20 µM)”, for which the AUC amounted to 0.789 and the pIC50 was 5.11.

As to “NCI-H2170 (lung squamous cell carcinoma, adherent, top dose 20 µM)”, the AUC was found to be 0.901 and the pIC50 was below 4.70.

“VM-CUB-1 (bladder, adherent, top dose 20 µM)”: the AUC came out at 0.975 and the pIC50 was below 4.70.

Regarding “NCI-H2405 (lung adenocarcinoma, adherent, top dose 20 µM)”, the AUC is 0.869 and the pIC50 is below 4.70.

“AN3-CA (endometrium, adherent, top dose 20 µM)”: the AUC was determined as 0.964 and the pIC50 was below 4.70.

With “P31-FUJ (acute myeloid leukaemia, suspension, top dose 20 µM)”, the AUC worked out at 0.919 and the pIC50 was 4.75.

“SU-DHL-6 (B-cell lymphoma, suspension, top dose 20 µM)”: the AUC turned out to be 0.561 and the pIC50 is 5.75.

For “KMH-2 (thyroid, adherent, top dose 20 µM)”, the AUC amounted to 0.902 and the pIC50 is below 4.70.

In the case of “OACM5-1 (oesophagus, semi-adherent, top dose 20 µM)”, the AUC stood at 0.471 and the negative logarithm of the IC50 (pIC50) was 5.99.

With “PSN1 (pancreas, adherent, top dose 20 µM)”, the AUC was 0.664 and the negative-log IC50 (pIC50) is 5.48.

For “GP5d (large intestine, adherent, top dose 20 µM)”, the AUC stood at 0.788 and the negative logarithm of the IC50 (pIC50) is 5.11.

Turning to “OE19 (oesophagus, adherent, top dose 20 µM)”, the AUC came to 0.972 and the negative logarithm of the IC50 (pIC50) is below 4.70.

With “MMAC-SF (melanoma, adherent, top dose 20 µM)”, the AUC amounted to 0.936 and the pIC50 was below 4.70.

Consider “ONS-76 (medulloblastoma, adherent, top dose 20 µM)”, for which the AUC was 0.951 and the pIC50 was below 4.70.

For “NCI-H520 (lung squamous cell carcinoma, adherent, top dose 20 µM)”, the AUC worked out at 0.831 and the pIC50 was 4.88.

Regarding “LS-180 (large intestine, adherent, top dose 20 µM)”, the AUC was 0.935 and the pIC50 was below 4.70.

Regarding “A375 (melanoma, adherent, top dose 20 µM)”, the AUC stood at 0.922 and the pIC50 is below 4.70.
